In PubChem BioAssay AID1159614 (National Center for Advancing Translational Sciences (NCATS), 2016):
The whole screen tested about 45,000 compounds, of which about 65 (0.1%) were called active. The call rests on the fitted dose curve; in most records, active means well fitted activation curve with a large enough effect; inconclusive means small, poorly fitted or top-dose-only effect; inactive means no such curve, though single readings can be large or run the other way. The list shows a part of the results.

Biological target: Galactocerebrosidase (Homo sapiens) (UniProt P54803)
Assay: A Novel Cell-Based Assay to Identify Small Molecules for B -Galactocerebrosidase; further: 0% is about no effect; nearly all actives have a fitted effect of over 65% in size
Details: 145M-Twi-hGALC-G270D cells (Twitcher mouse brain line with human GALC G270D), HMU-beta-Gal fluorescence, 48 h; series mostly up to 57.5 µM; activation: at the top concentration
Summary of the method: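 Fluorescence readout: HMU-β-gal cleavage by mutant GALC (0.1 mM final, citrate/phosphate pH 5.2 with 1 mg/mL taurocholate), stopped with carbonate/bicarbonate plus Triton X-100. Cells: murine Twitcher 145M-Twi expressing human G270D GALC; qHTS for activators.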

Sequence of UniProt P54803 (P54803 whole entry, looked up): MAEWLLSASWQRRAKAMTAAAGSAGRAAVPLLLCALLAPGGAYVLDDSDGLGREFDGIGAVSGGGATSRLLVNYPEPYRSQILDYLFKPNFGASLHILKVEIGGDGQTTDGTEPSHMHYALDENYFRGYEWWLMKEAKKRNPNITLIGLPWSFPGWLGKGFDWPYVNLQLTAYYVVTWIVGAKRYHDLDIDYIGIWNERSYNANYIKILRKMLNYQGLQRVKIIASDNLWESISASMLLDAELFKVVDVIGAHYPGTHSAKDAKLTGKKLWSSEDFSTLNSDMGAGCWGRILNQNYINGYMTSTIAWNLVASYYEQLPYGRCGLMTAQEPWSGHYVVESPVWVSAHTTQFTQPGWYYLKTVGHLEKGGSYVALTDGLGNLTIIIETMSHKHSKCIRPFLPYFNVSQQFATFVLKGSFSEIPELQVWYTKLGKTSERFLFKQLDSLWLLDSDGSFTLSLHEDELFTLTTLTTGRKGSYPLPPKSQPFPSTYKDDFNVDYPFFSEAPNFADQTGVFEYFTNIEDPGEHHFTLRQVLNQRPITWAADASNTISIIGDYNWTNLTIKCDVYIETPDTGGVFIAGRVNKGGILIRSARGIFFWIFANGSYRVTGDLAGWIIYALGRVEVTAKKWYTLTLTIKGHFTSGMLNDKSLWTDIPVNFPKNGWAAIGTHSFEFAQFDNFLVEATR

activation, inactive:
COc1c(C)cc(S(=O)(=O)NCCc2c(C)[nH]c3ccccc23)c(C)c1C -9.84%
COc1ccc(OC)c(NC(=O)C2CCCN(S(=O)(=O)c3c(C)nn(C)c3C)C2)c1 (stereo unspecified) -2.42%
Cc1ccc(NC(=O)c2cnn3c(C(F)F)cc(-c4ccccc4)nc23)c(C)c1 -7.01%
Cc1ccc(NC(=O)Nc2nnc(N(CC(C)C)CC(C)C)s2)cc1Cl -14.7%
CCN(CC)CCCC(C)Nc1c2ccc(Cl)cc2nc2ccc(OC)cc12 (stereo unspecified) -13.6%
CCOc1ccc(-c2cc(NC(=O)Nc3cccc(C(C)=O)c3)c(C(=O)OC)s2)cc1 -9.18%
CCOc1ccc(S(=O)(=O)NCC(c2ccco2)S(=O)(=O)c2cccs2)cc1 (stereo unspecified) -5.3%
CCOC(=O)c1ccc(NC(=O)CCCc2nc(-c3ccccc3Cl)no2)cc1 -14.6%
COc1ccc(NC(=O)C2=C(C)Nc3ncnn3C2c2ccc(O)cc2)cc1 (stereo unspecified) 3.63%
CCOC(=O)CSc1nc2ccc(NC(=O)c3ccc(C)cc3)cc2s1 3.8%
COc1cccc(N2CCN(C(=O)C(CCSC)NS(=O)(=O)c3ccc4c(c3)oc(=O)n4C)CC2)c1 (stereo unspecified) 4.08%
CCc1ccc(CNC(=O)Cc2ccc(NC(=O)N3CCSc4ncccc43)cc2)cc1 -16%
O=C(O)c1ccc2c(c1)ncn2-c1ccc(F)c(F)c1 -3.01%
CCOc1ccc(-c2nonc2NC(=O)c2oc3cc(C)ccc3c2C)cc1 -4.92%
CCCCSCCCNC(=O)CN1C(=O)c2cccnc2Oc2ccc(Cl)cc21 -3.57%
COc1ccc(OC)c(NC(=O)c2cc3c(=O)oc4ccccc4c3s2)c1 -7.94%
Cc1cc2c(cc1S(=O)(=O)NCc1ccccc1Cl)OCCN2C -5.4%
Cc1ccc(C)c(NC(=O)c2ccc3c(O)c(S(=O)(=O)c4ccc(Cl)cc4)c(=O)[nH]c3c2)c1 -15.4%
CCN(CC)c1nn2c(=O)c(C(=O)NCCc3ccccc3)cnc2s1 -13%
COc1ccc(S(=O)(=O)N2CCN(c3ccccc3F)CC2)cc1-c1noc(C)n1 -18.5%
Fc1ccc(-c2noc3ncnc(N4CCN(c5ccccc5)CC4)c23)cc1 -22.5%
O=C(NCc1ccc(F)cc1)c1ccc2c(Cl)c3c(nc2c1)CCCC3 -18.5%
COc1ccc(OC)c(NC(=O)Cc2coc3ccc(C(C)C)cc23)c1 -22.1%
CCOC(=O)c1[nH]c(C)c(CCC(=O)NCc2ccccc2)c1C -19.1%
Cc1cc(C)cc(NC(=O)N2CCC(N3CCCCC3)CC2)c1 -12.4%
CCOC(=O)c1c(-c2ccccc2)oc2ccc(N(C(C)=O)S(=O)(=O)c3cc(C)ccc3C)cc12 -5.69%
CCc1cccc(-n2c(C)nc3c(cnn3-c3ccc(Cl)cc3)c2=O)c1 -6.15%
CCOC(=O)c1ccccc1NC(=O)C(=O)Nc1ccc2nc3n(c(=O)c2c1)CCCCC3 -13.8%
CC(=O)N1CCOc2cc(S(=O)(=O)Nc3cccc(C(F)(F)F)c3)c(Cl)cc21 -24%
Cc1cn2c(=O)cc(COc3cccc(NC(=O)c4ccccc4C)c3)nc2s1 -4.57%
COc1ccc(NC(=O)C2CCN(S(=O)(=O)c3ccc4[nH]c(=O)ccc4c3)CC2)c(OC)c1 -13.6%
CCOc1ccc(CNC(=O)C2CCN(c3nnc(-n4cccc4CNc4ccc(C)cc4)s3)CC2)cc1OC -7.6%
CCc1c(C)nc(SCC(=O)N2CCN(c3ccccc3OC)CC2)[nH]c1=O -18.5%
Cc1ccc(O)c(C(CC(=O)NCC2(c3ccccc3)CCCC2)c2ccccc2)c1 (stereo unspecified) -18.8%
Cc1ccccc1NC(=O)c1nc(-c2ccncc2)no1 -4.66%
CCC(C(=O)OCc1cc(=O)n2nc(CCOC)sc2n1)c1ccccc1 (stereo unspecified) -12.1%
COc1cccc(N2CCN(c3nc4ccc(C(=O)c5ccccc5)cc4n4c(C)nnc34)CC2)c1 5.72%
Cc1ccc(NC(=O)Cn2c(CCC(=O)O)ccc2-c2cccs2)cc1 -9.54%
CCOc1cc(C2c3c(oc4ccccc4c3=O)C(=O)N2Cc2ccc3c(c2)OCO3)ccc1O (stereo unspecified) -23.6%
Cc1ccc(-n2ncc(C(=O)Nc3ccc(C)c(F)c3)c2C2CCN(C(=O)OC(C)(C)C)CC2)cc1C -2.69%
Cc1nc2sc(C(=O)NCc3ccc(Cl)cc3)c(NC(=O)c3ccccc3)c2c(C)c1C -3.45%
Cc1ccc(CNC(=O)CCCCn2c(=O)c3ccccc3n(Cc3ccc(Cl)cc3)c2=O)cc1 10.8%
O=C(Nc1ccc2nc(SCC(=O)N3CCCC3)sc2c1)c1ccc(F)cc1 -16%
COC(=O)C(C)Sc1nc2c([nH]c3ccccc32)c(=O)n1-c1ccc(OC)cc1 (stereo unspecified) -17.8%
Cc1ccc(NC(=O)NCc2cccn2Cc2ccccc2)cc1F -17.9%
Cc1ccc(-c2cn3c(n2)sc2cc(C(=O)N4CCCCC4)ccc23)cc1 0.83%
Cc1cc(C)c2c(=O)cc(C(=O)Nc3ccc(S(=O)(=O)Nc4nc(C)cc(C)n4)cc3)oc2c1 -18.9%
Cc1cc(Nc2cccc(Cl)c2C)n2nc(Cc3ccccc3)nc2n1 -13%
COc1ccc(CNC(=O)CCCn2c(SCC(N)=O)nc3cc4c(cc3c2=O)OCO4)cc1 -13.3%
COc1cc(Cl)c(C)cc1NC(=O)c1cn(CC(C)C)c(=O)c2cc(OC)c(OC)cc12 -15.2%
CCOc1ccccc1NC(=O)Cn1c(=O)n(Cc2ccccc2)c(=O)c2c(C)c(C(=O)N(C)C)sc21 -10.8%
CCN(CC)C(=O)CSc1nc2cc3c(cc2c(=O)n1Cc1ccc(C(=O)NCCc2ccc(OC)c(OC)c2)cc1)OCO3 -11.3%
COc1cc(CN(CC2CCCO2)C(=O)c2ccccc2F)cc(OC)c1OC (stereo unspecified) -1.53%
Cc1cc(C)c(NC(=O)Cn2c(=O)n(CCCCC(=O)NCc3ccccc3Cl)c(=O)c3ccccc32)c(C)c1 -5.6%
CC(C)OCCCNC(=O)CCCn1c(SCC(=O)c2ccc(Br)cc2)nc2c(sc3ccccc32)c1=O 0.523%
CC(NC(=O)c1ccccc1)c1nc2ccccc2n1Cc1ccc(Cl)cc1 (stereo unspecified) -21.1%
COc1ccc(CNC(=O)c2cnn3c(C)c(Cc4ccc(F)cc4)c(C)nc23)cc1 -18.2%
COc1ccc(C(=O)Nc2ccc3nc4n(c(=O)c3c2)CCCCC4)cc1OC -13.5%
CCOc1ccc(NC(=O)CN2C(=O)COc3ccc(S(=O)(=O)Nc4ccccc4)cc32)cc1 -10.7%
Cc1ccc(OCCSc2nc3ccccc3n2CC(=O)N2CCOCC2)c(C)c1 12.1%
Cc1ccc(Cl)cc1NC(=O)Cn1nc2c(cc1=O)CC(C)CC2 (stereo unspecified) -7.6%
CC(C)Cn1c(=O)c2ccccc2n2c(-c3cccc(Cl)c3)nnc12 -15.5%
COc1ccc(C(=O)NCc2nnnn2-c2ccc(C)c(C)c2)cc1 -13.1%
COc1ccc(Cl)c(Cn2c(NCCN)nc3c2c(=O)n(C)c(=O)n3C)c1 -24.6%
CCC(=O)N1CCc2cc(Br)cc(S(=O)(=O)N3CCC(C(=O)NC(C)(C)C)CC3)c21 -10.2%
O=C(NNc1ncnc2c1cnn2-c1ccccc1)c1cccc(Cl)c1 -13.4%
CCCOc1ccccc1Cn1c(=O)sc2ccccc21 -15.9%
Cc1ccc(Cl)cc1Nc1nc2ccccc2n2c(C)nnc12 -14.3%
N#Cc1ccc(-c2cccs2)nc1SCc1ccc(Cl)cc1Cl -15.5%
CCOc1ccc(NC(=O)N2CCOc3ccccc32)cc1 -20.5%
Cc1ccnc(NC(c2ccccc2F)c2ccc3cccnc3c2O)c1 (stereo unspecified) -22%
CCc1ccccc1NC(=O)CSc1nnc(-c2nonc2NC(C)=O)n1C -12%
Cc1[nH]c(=O)[nH]c(=O)c1C1N2CC3(C(C)C)CN1CC(C(C)C)(C2)C3=O (stereo unspecified) -26.5%
Cc1ccc(N2CCn3c2nc2c3c(=O)n(CCc3ccccc3)c(=O)n2C)cc1C -9.77%
CCOC(=O)c1ccc(NC(=O)CN2C(=O)c3cccnc3Oc3ccc(Cl)cc32)cc1 -2.74%
CN(CCOc1ccc(NS(C)(=O)=O)cc1)CCc1ccc(NS(C)(=O)=O)cc1 -12.4%
CCCCc1nn2c(=O)cc(COC(=O)c3ccccc3NC(=O)C(C)(C)C)nc2s1 1.34%
Cc1cc(NS(=O)(=O)c2ccc(NC(=O)COc3ccc(Br)cc3C)cc2)no1 -15.7%
CCc1ccc(-n2c(C)nnc2SCc2nc(-c3ccc(OC)cc3)no2)cc1 -7.95%
Cc1ccc(NC(=O)CCSCCc2ccccn2)cc1 -8.76%
Cc1ccc(-c2cc3ncc(C(=O)c4cc([N+](=O)[O-])ccc4O)cn3n2)cc1 9.64%
O=C(Nc1ccc(Cl)cc1Cl)c1cc(S(=O)(=O)N2CCN(c3ccccc3F)CC2)ccc1F -19.4%
Cc1ccn2c(c1)nc(=O)c1cc(S(=O)(=O)N3CCC(C)CC3)c(Cl)cc12 -14.1%
CCCCN(C)CCNC(=O)c1cc(-c2cccnc2)nc2ccc(S(=O)(=O)N3CCC(C)CC3)cc12 -12.9%
O=C(COc1ccccc1F)Nc1ccc(C(=O)OCc2cc(=O)n3nc(C4CC4)sc3n2)cc1 -8.37%
CN(Cc1ccccc1)c1nc(-c2ccc(F)cc2)cc(C(F)(F)F)n1 -25.3%
CC(C)(C)OC(=O)N1CCC(c2c(C(=O)NCc3ccc4c(c3)OCO4)cnn2-c2ccc(F)cc2F)CC1 -5.51%
O=C(Nc1ccc(Cl)cc1)C1CCN(c2nc3ccccc3n3cccc23)CC1 -3.76%
CCC(Oc1ccccc1F)C(=O)Nc1c(C(=O)c2ccccc2)oc2ccccc12 (stereo unspecified) -13.3%
COc1ccc(Br)cc1CNC(=O)CCCn1c(=O)c2cccn2c2ccccc21 -7.88%
CC1=C(C)C(=O)C(CCCCC#CCCCC#CCO)=C(C)C1=O -14.7%
Cc1cccc(-c2nc3c(C#N)c[nH]n3c2NC2CCCCC2)c1 -5.4%
COc1cc(C(=O)NCC(c2cccnc2)N2CCN(c3ccc(F)cc3)CC2)cc(OC)c1OC (stereo unspecified) -8.3%
Cc1nn(-c2ccc3nncn3n2)c(C)c1CCC(=O)Nc1ccc(OC(F)(F)F)cc1 -21.7%
Cc1ccc(-c2noc(CN(C3CCCCC3)S(=O)(=O)c3ccc(C)cc3)n2)cc1 -15.1%
COc1cccc(-c2nnc3n(Cc4ccc(F)cc4)c(=O)c4ccccc4n23)c1 -20.8%
